Test results published in a collection of fitness landscapes (doi:10.1016/j.celrep.2020.107928).
Whole data set: some 81,000 sequences, median “one-hybrid fitness for binding NBS DNA” near -0.1, cut for the highest 2% near 0.36. This is one part of the list.

B1: Caulobacter ParB omega fusion; a variant is named by its letters at X, in order, B8GW30 (parent)
chain: MESVVVGEPGMSEGRRGLGRGLSALLGEVDAAPAQAPGEQLGGSREAPIEILQRNPDQPRRTFREEDLEDLSNSIREKGVLQPILVRPSPDTAGEYQIVAGERAWRAAQRAGLKTVPIMVRELDDLAVLEIGIIENVQRADLNVLEEALSYKVLMEKFERTQENIAQTIGKSXSHVANXMRLLXLPDEVQSYLVSGELTAXHARAIAAAADPVALAKQIIEGGLSVRETEALARKAPNLSAGKSKGGRPPRVKDTDTQALESDLSSVLGLDVSIDHRGSTGTLTITYATLEQLDDLCNRLTRGI

Variants of: B1
Experiment: one-hybrid fitness for binding NBS DNA (the Noc-binding site; scaled: cognate 1, non-cognate 0); higher = stronger binding
Details: with NBS DNA site
In short: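 Fitness here means the log change in variant-to-wild-type read ratio between plasmids sequenced before and after selection. That scale was set so cognate equals 1 and non-cognate equals 0. The selection was a bacterial one-hybrid screen of Caulobacter ParB libraries, four specificity codons randomised, in E. coli USO carrying a HIS3 reporter with the site 19 bp from the promoter, grown 48 hours at 37°C on M9-minus-histidine with 0.1 mM IPTG and 5 mM 3-AT.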

| Variant | one-hybrid fitness for binding NBS DNA |
| --- | --- |
| IEAV | ≤ 0.2 |
| QIDL | ≤ 0.2 |
| WSIT | ≤ 0.2 |
| LQMM | ≤ 0.2 |
| YIDC | ≤ 0.2 |
| GMLI | ≤ 0.2 |
| GEQY | ≤ 0.2 |
| RMIG | ≤ 0.2 |
| EDSL | ≤ 0.2 |
| PPQT | ≤ 0.2 |
| RMCH | ≤ 0.2 |
| HCMM | ≤ 0.2 |
| KNEP | ≤ 0.2 |
| MMTG | ≤ 0.2 |
| GTNA | ≤ 0.2 |
| PMAN | ≤ 0.2 |
| FPNL | ≤ 0.2 |
| HDVT | ≤ 0.2 |
| QMPE | ≤ 0.2 |
| NFNG | ≤ 0.2 |
| TMII | ≤ 0.2 |
| TIKR | 0.202 |
| TTHC | ≤ 0.2 |
| YNPY | ≤ 0.2 |
| GCGC | ≤ 0.2 |
| FYSW | ≤ 0.2 |

| Variant | one-hybrid fitness for binding NBS DNA |
| --- | --- |
| LKEC | ≤ 0.2 |
| MWWA | ≤ 0.2 |
| LPYT | ≤ 0.2 |
| QSFL | ≤ 0.2 |
| MEPH | ≤ 0.2 |
| ADFC | ≤ 0.2 |
| CWSD | ≤ 0.2 |
| RPRY | ≤ 0.2 |
| CARA | ≤ 0.2 |
| TVAC | ≤ 0.2 |
| KRMG | ≤ 0.2 |
| LRQC | ≤ 0.2 |
| EQHR | ≤ 0.2 |
| RVCC | ≤ 0.2 |
| MTSW | ≤ 0.2 |
| WTNG | ≤ 0.2 |
| GFHG | ≤ 0.2 |
| RQNS | 0.48 |
| CFIT | ≤ 0.2 |
| TAIV | ≤ 0.2 |
| QEAP | ≤ 0.2 |
| RMDF | ≤ 0.2 |
| VAKF | ≤ 0.2 |
| HEWF | ≤ 0.2 |
| HKCM | ≤ 0.2 |
| QQLA | 0.294 |

| Variant | one-hybrid fitness for binding NBS DNA |
| --- | --- |
| ITNS | ≤ 0.2 |
| HYDR | ≤ 0.2 |
| KKPR | ≤ 0.2 |
| QMTK | ≤ 0.2 |
| IHGR | ≤ 0.2 |
| QVIN | ≤ 0.2 |
| DSVC | ≤ 0.2 |
| RALC | ≤ 0.2 |
| LRGR | 0.267 |
| MRGF | ≤ 0.2 |
| QTYA | 0.427 |
| RIYR | 0.377 |
| YKDT | 0.385 |
| LASK | ≤ 0.2 |
| GMYE | ≤ 0.2 |
| EASW | ≤ 0.2 |
| CKLT | ≤ 0.2 |
| DMPW | ≤ 0.2 |
| RKCC | ≤ 0.2 |
| MTPY | ≤ 0.2 |
| QLCC | ≤ 0.2 |
| ASDY | ≤ 0.2 |
| ICKS | ≤ 0.2 |
| KCVL | ≤ 0.2 |
| VEAT | ≤ 0.2 |
| HIRL | ≤ 0.2 |

| Variant | one-hybrid fitness for binding NBS DNA |
| --- | --- |
| FPHV | ≤ 0.2 |
| HPDC | ≤ 0.2 |
| RTIY | ≤ 0.2 |
| CQGC | ≤ 0.2 |
| TEGR | ≤ 0.2 |
| LSFV | ≤ 0.2 |
| YTHS | ≤ 0.2 |
| YCRV | ≤ 0.2 |
| PTTT | ≤ 0.2 |
| ISDP | ≤ 0.2 |
| EFRL | ≤ 0.2 |
| IPVG | ≤ 0.2 |
| RWSH | ≤ 0.2 |
| TTQV | ≤ 0.2 |
| QDEV | ≤ 0.2 |
| FPDQ | ≤ 0.2 |
| WRFR | ≤ 0.2 |
| IKHS | ≤ 0.2 |
| GGFT | ≤ 0.2 |
| TRVR | 0.215 |
| VDVT | ≤ 0.2 |
| DHIR | ≤ 0.2 |
| PTGT | ≤ 0.2 |
| HNFC | ≤ 0.2 |
| SFFC | ≤ 0.2 |
| STHR | ≤ 0.2 |

| Variant | one-hybrid fitness for binding NBS DNA |
| --- | --- |
| KGMR | ≤ 0.2 |
| GHTT | ≤ 0.2 |
| HSRE | ≤ 0.2 |
| ITYH | ≤ 0.2 |
| AMQS | ≤ 0.2 |
| WSQT | ≤ 0.2 |
| LYPV | ≤ 0.2 |
| QMMW | ≤ 0.2 |
| AIND | ≤ 0.2 |
| CIIW | ≤ 0.2 |
| SVRM | ≤ 0.2 |
| PIDC | ≤ 0.2 |
| WPDC | ≤ 0.2 |
| CFTV | ≤ 0.2 |
| KPKV | ≤ 0.2 |
| TSNG | ≤ 0.2 |
| DIVD | ≤ 0.2 |
| PRCS | ≤ 0.2 |
| TAHC | ≤ 0.2 |
| KTKN | ≤ 0.2 |
| MNTS | ≤ 0.2 |
| PNGS | ≤ 0.2 |
| GFTD | ≤ 0.2 |
| GIMA | ≤ 0.2 |
| TSQE | ≤ 0.2 |
| YCNA | ≤ 0.2 |

| Variant | one-hybrid fitness for binding NBS DNA |
| --- | --- |
| RQLQ | ≤ 0.2 |
| PCPY | ≤ 0.2 |
| DPKC | ≤ 0.2 |
| DFRC | ≤ 0.2 |
| RRNS | 0.678 |
| AYYT | ≤ 0.2 |
| YVPM | ≤ 0.2 |
| NAMS | ≤ 0.2 |
| PAAD | ≤ 0.2 |
| RYWN | ≤ 0.2 |
| WAVS | ≤ 0.2 |
| TESA | ≤ 0.2 |
| GIDK | ≤ 0.2 |
| NNSK | ≤ 0.2 |
| LYNS | ≤ 0.2 |
| PTTE | ≤ 0.2 |
| AIPV | ≤ 0.2 |
| AVNF | ≤ 0.2 |
| ADDQ | ≤ 0.2 |
| NMRY | ≤ 0.2 |
| FSRY | ≤ 0.2 |
| NKCR | ≤ 0.2 |
| AAMC | ≤ 0.2 |
